Experimental data: the BET-seq Pho4 binding data (Le et al. 2018)
The list shows a part of the results. These are noisy estimates, calculated here from bound and input reads.

What follows are sequences tested against T1, Pho4 (S. cerevisiae) (UniProt P07270) (assay: relative binding free energy (BET-seq); higher = weaker binding). Details: reference: library average.
T1 sequence: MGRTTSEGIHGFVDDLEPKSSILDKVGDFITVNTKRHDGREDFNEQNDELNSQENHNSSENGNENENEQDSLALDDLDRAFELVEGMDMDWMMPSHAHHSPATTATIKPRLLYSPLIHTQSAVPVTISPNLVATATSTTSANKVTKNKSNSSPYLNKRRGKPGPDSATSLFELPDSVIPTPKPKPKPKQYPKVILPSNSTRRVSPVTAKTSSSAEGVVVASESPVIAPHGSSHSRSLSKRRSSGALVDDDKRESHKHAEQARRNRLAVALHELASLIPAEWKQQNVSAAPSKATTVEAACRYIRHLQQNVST

Relative binding free energy, 0.39 kcal/mol:
GTGTTCACGTGTCGGA

Relative binding free energy, -0.09 kcal/mol:
GATTCCACGTGGGGGG, TGTGACACGTGCGTTT, GGGATCACGTGGGTCA, TTTGCCACGTGCGTGG, GTTGGCACGTGTCATA

Relative binding free energy, 0.29 kcal/mol:
CTGTACACGTGAGAGG, GGTCTCACGTGTGGTT, AGGTTCACGTGACGGA, TGTCCCACGTGAGGTT, CTTTTCACGTGGAATG

Relative binding free energy, 0.26 kcal/mol:
CTTTGCACGTGAGAAT, TCATTCACGTGTACGG, AAATTCACGTGTAGTT, GCCTTCACGTGGGGTT, GGTCTCACGTGGGTTC

Relative binding free energy, 0.23 kcal/mol:
GGCAGCACGTGTCGGT, AGAATCACGTGTGTAG

Relative binding free energy, 0.05 kcal/mol:
GGATGCACGTGGAAAG, TCCTGCACGTGTGTTT, GTCTACACGTGCGGTG, GGTGACACGTGGTTTA

Relative binding free energy, 0.36 kcal/mol:
AGGTTCACGTGTGACT, TTATTCACGTGGGATG, AAGCTCACGTGGAGAT

Relative binding free energy, -0.1 kcal/mol:
GGGTCCACGTGGTGCG, ATCTGCACGTGGTGAT, GTGGGCACGTGGGAGA, CGGGACACGTGGGGGG, TAGGGCACGTGTTGTC

Relative binding free energy, -0.12 kcal/mol:
GTTGGCACGTGGGACT, ATGAACACGTGGGTGC, AGTAACACGTGGCGTG

Relative binding free energy, 0.46 kcal/mol:
TCTGTCACGTGATTTC, CTTATCACGTGAAGTT

Relative binding free energy, 0.16 kcal/mol:
CTTGTCACGTGAGCGG, TAGTTCACGTGGTACG, GTTCGCACGTGATTTG

Relative binding free energy, 0.21 kcal/mol:
AGAGTCACGTGATGTG, TTTCTCACGTGGATTT, CGGAGCACGTGAGGAT

Relative binding free energy, 0.24 kcal/mol:
TTGATCACGTGATTTA, AGCTTCACGTGATTTG, GTGGTCACGTGTTAAT, TTTTTCACGTGCCGTT, AAGTACACGTGAGGTA

Relative binding free energy, 0.43 kcal/mol:
TGGTTCACGTGAACTG

Relative binding free energy, -0.06 kcal/mol:
TGGTCCACGTGGGCTG, GTGGGCACGTGTAAGG, TTCAGCACGTGTTGTA, TTTAGCACGTGTGTCA, TATAACACGTGGTATT

Relative binding free energy, 0.45 kcal/mol:
GTGTTCACGTGCAAAG

Relative binding free energy, -0.28 kcal/mol:
TAGGGCACGTGGGTTC

Relative binding free energy, -0.23 kcal/mol:
CATGGCACGTGGGTCG, ACGTGCACGTGGTTTA, CGTGGCACGTGGTACT

Relative binding free energy, -0.2 kcal/mol:
TAGTACACGTGGGGAA

Relative binding free energy, 0.12 kcal/mol:
CTGGTCACGTGGTCGG, AGGATCACGTGGTAGT, GTATTCACGTGTCTTT, TACTCCACGTGTTGTG, AAAATCACGTGGGATT

Relative binding free energy, 0.2 kcal/mol:
GTTGGCACGTGAATAG, GAGTCCACGTGTGAGG, AATCTCACGTGTGTTG, GTGGACACGTGATGTT

Relative binding free energy, 0.06 kcal/mol:
TTCTGCACGTGATTGA, TCGGACACGTGTTGAT, TGTTACACGTGGTTCG, CCTGTCACGTGGATGT, TTAGACACGTGATCTG

Relative binding free energy, 0.47 kcal/mol:
CAATTCACGTGGATAT

Relative binding free energy, -0.29 kcal/mol:
TGTGCCACGTGGGTCA, TGGGGCACGTGCATCG

Relative binding free energy, -0.22 kcal/mol:
TTTGCCACGTGGGGGT, TGTGGCACGTGGGTTC, ATAGGCACGTGGGCGC

Relative binding free energy, 0.11 kcal/mol:
ATGGTCACGTGTGTGA

Relative binding free energy, 0.42 kcal/mol:
GGGTTCACGTGAGCAT, CGAGTCACGTGAATTG

Relative binding free energy, 0.1 kcal/mol:
TAGTGCACGTGAGAAG, AGTATCACGTGTAGCG

Relative binding free energy, 0.04 kcal/mol:
AGAGACACGTGGATGT, CGTAGCACGTGATAGT, TGAGGCACGTGTGTGA, GGGTACACGTGGCTCG, AGGGCCACGTGATTGG, GGGTCCACGTGGAGGA, CTTATCACGTGGTAGG

Relative binding free energy, -0.02 kcal/mol:
AGGGTCACGTGGCTGA, GTGGGCACGTGTTCAG

Relative binding free energy, -0.26 kcal/mol:
TTTGGCACGTGCTTCG

Relative binding free energy, 0.08 kcal/mol:
TATGTCACGTGTACTT, AAGTACACGTGTGGAG, CTGTACACGTGTGTTA, GTCGTCACGTGTGAAG, TGTGTCACGTGTCTAG, GTCATCACGTGTGTAG, TTGGACACGTGGAAAT, GCGTACACGTGTTGGT

Relative binding free energy, -0.21 kcal/mol:
AACAGCACGTGGGGTA, CAGGGCACGTGGTGCT, CTTGGCACGTGGGAAT, AGTAGCACGTGGTACG, TGAAGCACGTGGGGCA, TAGGGCACGTGGTATA

Relative binding free energy, 0.31 kcal/mol:
AGGTTCACGTGTTGGC

Relative binding free energy, 0.32 kcal/mol:
TATATCACGTGTATAA, ATGTTCACGTGCGGGG

Relative binding free energy, 0.37 kcal/mol:
GTTATCACGTGAAAGT

Relative binding free energy, 0.17 kcal/mol:
AGTCTCACGTGGTGTA, GATTACACGTGGGGCA, CGTTGCACGTGATGTT

Relative binding free energy, -0.08 kcal/mol:
GCGCGCACGTGGAGGT, AAGTGCACGTGCTTTG, TATTGCACGTGGGTAA, GGTCGCACGTGGGACG, TGTCACACGTGCGGTG

Relative binding free energy, -0.03 kcal/mol:
ATTTGCACGTGGCGAG, TGGTACACGTGGTCGT, TTGTCCACGTGTGTCG, AATTGCACGTGTGGAG, GTCTGCACGTGCGTTT

Relative binding free energy, -0.11 kcal/mol:
TAAAGCACGTGCGGGG, TTGGCCACGTGTTGGC, AGTCGCACGTGGGTTG, TTGCGCACGTGGTAAT

Relative binding free energy, 0 kcal/mol:
TTGGGCACGTGATATA, CGGAGCACGTGAAGGG, AGGTACACGTGGGTAT, ATGTACACGTGCGAGG

Relative binding free energy, 0.07 kcal/mol:
GTCAACACGTGGAGTG, AGTGTCACGTGATTGC

Relative binding free energy, 0.25 kcal/mol:
TTGATCACGTGAGGAG, GTCTACACGTGTATGT

Relative binding free energy, -0.13 kcal/mol:
CGAGGCACGTGGAGGG, GTCAGCACGTGTGTTT

Relative binding free energy, 0.02 kcal/mol:
CTTGGCACGTGTTAGC, AGGATCACGTGGGGTT, AGTTGCACGTGTTTGG

Relative binding free energy, 0.15 kcal/mol:
TCAATCACGTGTTTTT, TGTATCACGTGATGCT, GATATCACGTGTTGGA, CATTGCACGTGTGAGT, GTGATCACGTGTTATT

Relative binding free energy, -0.04 kcal/mol:
CAGTGCACGTGGAGGT, GGAGACACGTGGGGGT, AATTGCACGTGGCAGG, TATTCCACGTGTTGTG, TCATACACGTGGTTTT

Relative binding free energy, -0.01 kcal/mol:
AGTGACACGTGTGGGA, CGGTGCACGTGGCGTA, AGGGACACGTGGGATT, TAAAGCACGTGTTAAG, GATGGCACGTGTACGT, TTGTGCACGTGTGAAC, TTCTGCACGTGGAGGT

Relative binding free energy, -0.07 kcal/mol:
GGGACCACGTGGTGTG, AATGGCACGTGGCAAG, GCATGCACGTGGTAGT, GGCGCCACGTGTGGTA, ATCGGCACGTGACGGG, GAGCACACGTGGTGGT

Relative binding free energy, 0.28 kcal/mol:
TGGTTCACGTGCGGGT

Relative binding free energy, 0.4 kcal/mol:
GTTTGCACGTGAATTT

Relative binding free energy, -0.33 kcal/mol:
CTGCGCACGTGCGGGG

Relative binding free energy, -0.4 kcal/mol:
TTCGGCACGTGGGCAT

Relative binding free energy, 0.01 kcal/mol:
TAGTCCACGTGGAGGG, GTCGGCACGTGTGTTG, TGCGACACGTGTTGTT, ATCGCCACGTGTGGGT, AGAAACACGTGTTGGG, TAGACCACGTGTGTTG, TATGTCACGTGGACAG, GTAGTCACGTGGAATG

Relative binding free energy, -0.14 kcal/mol:
TGATGCACGTGCGGTA, ATTAACACGTGTCGTG, TTGTGCACGTGTACAT, GGTGACACGTGGGTAA

Relative binding free energy, 0.3 kcal/mol:
GTCATCACGTGATTTT, AGTGTCACGTGATCTC, TAAGTCACGTGTAGGA

Relative binding free energy, 0.09 kcal/mol:
AGTATCACGTGGGAAA, CTGATCACGTGTTGGT, ACATGCACGTGTGGAT, AGTTGCACGTGATAGT, CAAGGCACGTGAGTTG, TAGTGCACGTGGACAT, TAGATCACGTGGTATC, GAGGGCACGTGTCATT, TTTTGCACGTGTATGG

Relative binding free energy, 0.14 kcal/mol:
AATATCACGTGATTGT, GTCTGCACGTGATCGG, GTTGTCACGTGGCGAG, ATCAACACGTGTTGGG

Relative binding free energy, -0.39 kcal/mol:
TTACGCACGTGGGTGA

Relative binding free energy, 0.19 kcal/mol:
GGTAGCACGTGAGGTA, CAAGTCACGTGGTGAT, ATGTTCACGTGAGTGC

Relative binding free energy, 0.35 kcal/mol:
GTGTTCACGTGAGTAC

Relative binding free energy, 0.03 kcal/mol:
ACGGTCACGTGCGGGG, ACATTCACGTGGGTGA

Relative binding free energy, -0.25 kcal/mol:
ATCAGCACGTGGGGTT, CGGAGCACGTGCTGGG

Relative binding free energy, -0.19 kcal/mol:
AAGAGCACGTGTGCGG

Relative binding free energy, -0.16 kcal/mol:
GCGGGCACGTGGCGCG, TATTCCACGTGGGATG

Relative binding free energy, -0.05 kcal/mol:
GGTAACACGTGCGAGG, GAGGCCACGTGGGGTA, GGTAGCACGTGATGGA

Relative binding free energy, 0.13 kcal/mol:
GTACTCACGTGTATGT, ATTATCACGTGGTGTA, TGTTACACGTGTTTGC, GGCATCACGTGTGGCG, TTTTACACGTGAGTAG, GGAGTCACGTGCAGGT, TTGTTCACGTGGTCGT, TGTTCCACGTGATTGT

Relative binding free energy, 0.22 kcal/mol:
CGTTTCACGTGTTGTT, GATTACACGTGTTGGT, TGGGACACGTGAGCGA, TTCTGCACGTGTAAAT

Relative binding free energy, -0.15 kcal/mol:
TTTGGCACGTGGGGCA, GGGAACACGTGGGCTG, ATGTGCACGTGGGCGA, AAGAGCACGTGTGGAG, TTTGGCACGTGGGTTC, AGTGCCACGTGGAGTT

Relative binding free energy, 0.18 kcal/mol:
GAGCGCACGTGATAGT
